# Reference: PubChem BioAssay AID686979 (National Center for Advancing Translational Sciences (NCATS), 2013)
# Hit rate of the full screen: of about 420,000 compounds, about 50,000 (12%) were called active. This list was built around the results that the source calls inconclusive (neither active nor inactive); the mix of calls is not that of the screen. The call rests on the fitted dose curve; in most records, active means well fitted inhibition curve with a large enough effect; inconclusive means small, poorly fitted or top-dose-only effect; inactive means flat fitted curve, though single readings scatter. Potencies of inconclusive entries are left out as doubtful fits.
# Experiment: qHTS for Inhibitors of human tyrosyl-DNA phosphodiesterase 1 (TDP1): qHTS in cells in presence of CPT; further: nearly all actives have a fitted effect of over 55% in size
# Conditions: chicken DT40 Tdp1-/-;hTDP1 cells + 20 nM CPT, ATP luminescence, 48 h; activity change, negative = growth inhibition: at 46.2 µM (top of the series) unless noted
# Summary of the method: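 Cell growth measured by CellTiter-Glo luminescence after a minimum 48 h, 37 C compound exposure with 20 nM CPT in Tdp1-knockout DT40 cells stably expressing hTDP1, seeded 400/well; qHTS titration format.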
# On the % scale 0 is the no-effect control and ±100 the full control effect; potency means the concentration at half of the fitted maximal effect; tags describe the fitted curve by direction and shape.
SMILES,Potency,"activity change, negative = growth inhibition"
Cc1ccc(NCCC(=O)c2ccc(Cl)c(Cl)c2)cc1,"inconclusive [inhibitor, single point]",–
CCOc1ccccc1CN1CCNC(=O)C1CC(=O)NCCN1CCOC1=O (stereo not drawn),–,inactive: -9.03%
O=C(Nc1ccc2c(c1)C(=O)N(c1ccccc1)C2=O)C1CCCO1 (stereo not drawn),–,inactive: -19.7%
COc1cc(/C=N/NC(=O)c2cc(-c3c(C)nn(-c4ccccc4)c3C)n[nH]2)ccc1O,active: 23.1 µM,–
COC(=O)c1cccc(-n2nnnc2SCC(=O)Nc2nc3c(s2)CCCC3)c1,"inconclusive [inhibitor, single point]",–
CC(=O)c1cc(C#N)c(SCc2ccc([N+](=O)[O-])cc2)nc1C,–,inactive: -27.2%
OC(COC(c1ccc(Cl)cc1)c1ccc(Cl)cc1)CN1CCc2ccccc2C1 (stereo not drawn),"inconclusive [inhibitor, single point]",–
COc1ccc2[nH]c(=O)c(C(c3nnnn3C3CCCCC3)N3CCN(C)CC3)cc2c1 (stereo not drawn),–,inactive: -6.89%
CC(=O)Nc1ccc(S(=O)(=O)N2CCC(N3CCCC3)CC2)cc1,–,inactive: -17.4%
Cc1c(Cl)ccc(S(=O)(=O)N2CCN=C2c2ccccc2)c1Cl,"inconclusive [inhibitor, partial curve]",–
CN(C)CC1CCCCC1OC(=O)c1ccc(Cl)cc1Cl (stereo not drawn),"inconclusive [inhibitor, single point]",–
CCOC(=O)c1ccccc1NC(=O)c1ccc(N(C)S(C)(=O)=O)cc1,"inconclusive [inhibitor, partial curve]",–
CCOCCCn1cnc2c(c1=O)c1nc3ccccc3nc1n2-c1ccccc1,–,inconclusive: -32.2% [inhibitor]
CN(C)CCCN(C(=O)CCc1ccccc1)c1nc2c(F)cccc2s1,"inconclusive [inhibitor, single point]",–
COc1ccc(C(=O)c2coc3ccc(O)c(CN4CCCCC4)c23)cc1,"inconclusive [inhibitor, single point]",–
CCOC(=O)C1CCN(C(=O)C(CCSC)NC(=O)COc2ccccc2)CC1 (stereo not drawn),–,inactive: -25.6%
O=C(NCCC1=CCCCC1)C1CCN(S(=O)(=O)c2ccc(Br)s2)CC1,active: 20.6 µM,–
COc1c(Br)cc([N+](=O)[O-])c(OC)c1C(=O)NC(=O)Nc1nc(C)cc(C)n1,–,inactive: 3.55%
CCN(CC)CC(C)OC(=O)c1ccccc1Cl (stereo not drawn),–,inactive: -21%
CCCCn1c(/N=C/c2ccccc2NS(=O)(=O)c2ccc(C)cc2)nc2ccccc21,"inconclusive [inhibitor, partial curve, poor fit]",–
COc1ccccc1NC(=O)Nc1nnc(C(C)C)s1,–,inactive: -4.24%
Cc1cccc(N2CCN(c3c4c(nc5nncn35)CCC4)CC2)c1C,–,inactive: -29.2%
CCc1nc2ccc(C(=O)N3CCN(C)CC3)cn2c1N(C)CCC(C)C,"inconclusive [inhibitor, single point]",–
C=Cc1ccc(Cn2c(=O)cc(C)c3c(C)nn(C)c32)cc1,"inconclusive [inhibitor, single point]",–

SMILES,Potency,"activity change, negative = growth inhibition"
COc1cc([N+](=O)[O-])cc(/C=N/NC(=O)CSc2ccccn2)c1O,"inconclusive [inhibitor, single point]",–
CCOC(=O)CNC(=O)c1ccc2[nH]c3ccccc3c2c1,"inconclusive [inhibitor, single point]",–
C=CCOC(=O)c1ccccc1C(=O)OCC1CO1 (stereo not drawn),"inconclusive [inhibitor, single point]",–
CN(C)c1ccc(C(CNS(=O)(=O)c2ccc(F)cc2)N2CCc3ccccc32)cc1 (stereo not drawn),"inconclusive [inhibitor, single point]",–
CC1CCCC(C)N1C(=O)COC(=O)CNC(=O)c1ccc(Cl)cc1Cl (stereo not drawn),–,inactive: 2.74%
COc1cc(C(=O)Nc2ccc3c(c2)OCCO3)ccc1-n1cnnn1,–,inactive: -6.32%
CC(NC(=O)c1ccccc1)C(=O)OCC(=O)Nc1cccc(S(=O)(=O)N2CCCC2)c1 (stereo not drawn),"inconclusive [inhibitor, partial curve]",–
O=C(NCCc1c[nH]c2ccccc12)Nc1cccc2ccccc12,"inconclusive [inhibitor, single point]",–
CC(C)NC(=O)c1cc2nc(-c3ccco3)cc(C(F)(F)F)n2n1,"inconclusive [inhibitor, single point]",–
CC(OC(=O)c1nsc(Cl)c1Cl)C(=O)NC(C)(C)C (stereo not drawn),–,inactive: -3.69%
COc1cc(-c2nnc(SCC(=O)Oc3ccccc3Cl)o2)cc(OC)c1OC,–,inactive: -4.07%
COc1ccccc1C(=O)NCCC(=O)OCC(=O)Nc1ccc(S(N)(=O)=O)cc1,–,inactive: -5.31%
Cc1cc(C)c2cc(C#N)c(NCCNC(=O)c3cccnc3)nc2c1,"inconclusive [inhibitor, single point]",–
CC1Cc2ccccc2N1C(=O)c1cnc2sccn2c1=O (stereo not drawn),–,inactive: -0.474%
O=[N+]([O-])c1cc(S(=O)(=O)N2CCCC2)ccc1N/N=C1/CCCc2ccccc21,"inconclusive [inhibitor, single point]",–
Cc1cccc(NC(=O)CSc2nnc([C@H](C)NC(=O)OC(C)(C)C)o2)c1C,"inconclusive [inhibitor, single point]",–
O=c1c(N2CCc3ccccc3C2)csc2ccc(Br)cc12,active: 23.1 µM,–
CC(C)CCN(Cc1ccco1)C(=O)Cn1ncc2c([nH]c3ccccc32)c1=O,"inconclusive [inhibitor, single point]",–
CCCC[n+]1c2ccccc2cc2ccccc21,active: 2.31 µM,–
CC(C)(C)c1ccc(C(=O)OCC(=O)NC2CC2)cc1,–,inactive: 2.21%
COc1ccccc1NC(=O)c1cc(C2CC2)nc2c1c(C)nn2-c1ccc(C)cc1,"inconclusive [inhibitor, single point]",–
COC(=O)c1cc(NC(=O)Nc2ccccc2OC)cc(C(=O)OC)c1,"inconclusive [inhibitor, single point]",–
Cc1cccc(C(=O)Nc2ccc(N3CCN(c4ccc(F)cc4)CC3)c(C(=O)O)c2)c1,–,inactive: -13.5%
COc1cc(OC)c(OC)cc1/C=N/NC(=S)NCC1CCCO1 (stereo not drawn),active: 7.31 µM,–
